# Laboratory results reported in the supplement of paper PMC8728848.
# The other results are listed elsewhere or left out.
# Columns and labels:
# Test in all cases: glycan array binding signal (z-score within array); higher = stronger binding
# Settings in all cases: glycan notation: IUPAC condensed, linker removed
# Neu5Ac(a2-3)GalNAc = target: Neu5Ac(a2-3)GalNAc
# Method in brief: (§1)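 The binding signal is a Z-score computed within each array. Data were drawn from 3228 arrays in the Consortium for Functional Glycomics database, restricted to those with a known protein sequence. Scores were averaged over arrays of the same protein sequence at different concentrations or buffers, and over linkers, and negative values can be taken as non-binding.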
# [1] = target: Neu5Ac(a2-3)GalNAc(b1-4)GlcNAc
# Method in brief: as §1
# [2] = target: Neu5Ac(a2-3)[GalNAc(b1-4)]Gal(b1-4)Glc
# Method in brief: as §1
# [3] = target: Neu5Ac(a2-3)[GalNAc(b1-4)]Gal(b1-4)GlcNAc
# Method in brief: as §1
# [4] = target: Neu5Ac(a2-3)[GalNAc(b1-4)]Gal(b1-4)GlcNAc(b1-3)GalNAc
# Method in brief: as §1
# [5] = target: Neu5Ac(a2-3)[Neu5Ac(a2-6)]GalNAc
# Method in brief: as §1
# Neu5Ac(a2-6)Gal = target: Neu5Ac(a2-6)Gal
# Method in brief: as §1
# [6] = target: Neu5Ac(a2-6)Gal(b1-3)GlcNAc(b1-3)[Gal(b1-4)GlcNAc(b1-6)]Gal(b1-4)Glc
# Method in brief: as §1
# Neu5Ac(a2-6)Gal(b1-4)Glc = target: Neu5Ac(a2-6)Gal(b1-4)Glc
# Method in brief: as §1
# [7] = target: Neu5Ac(a2-6)Gal(b1-4)GlcNAc
# Method in brief: as §1
# [8] = target: Neu5Ac(a2-6)Gal(b1-4)GlcNAc(b1-2)Man
# Method in brief: as §1
# [9] = target: Neu5Ac(a2-6)Gal(b1-4)GlcNAc(b1-2)Man(a1-3)Man(b1-4)GlcNAc(b1-4)GlcNAc
# Method in brief: as §1
# [10] = target: Neu5Ac(a2-6)Gal(b1-4)GlcNAc(b1-2)Man(a1-3)[Gal(b1-4)GlcNAc(b1-2)Man(a1-6)]Man(b1-4)GlcNAc(b1-4)GlcNAc
# Method in brief: as §1
# [11] = target: Neu5Ac(a2-6)Gal(b1-4)GlcNAc(b1-2)Man(a1-3)[GlcNAc(b1-4)][Neu5Ac(a2-6)Gal(b1-4)GlcNAc(b1-2)Man(a1-6)]Man(b1-4)GlcNAc(b1-4)GlcNAc
# Method in brief: as §1
# [12] = target: Neu5Ac(a2-6)Gal(b1-4)GlcNAc(b1-2)Man(a1-3)[Man(a1-6)]Man(b1-4)GlcNAc(b1-4)GlcNAc
# Method in brief: as §1
# [13] = target: Neu5Ac(a2-6)Gal(b1-4)GlcNAc(b1-2)Man(a1-3)[Neu5Ac(a2-3)Gal(b1-4)GlcNAc(b1-2)Man(a1-6)]Man(b1-4)GlcNAc(b1-4)GlcNAc
# Method in brief: as §1
# [14] = target: Neu5Ac(a2-6)Gal(b1-4)GlcNAc(b1-2)Man(a1-3)[Neu5Ac(a2-6)Gal(b1-4)GlcNAc(b1-2)Man(a1-6)]Man(b1-4)GlcNAc(b1-4)GlcNAc
# Method in brief: as §1
# [15] = target: Neu5Ac(a2-6)Gal(b1-4)GlcNAc(b1-2)Man(a1-3)[Neu5Ac(a2-6)Gal(b1-4)GlcNAc(b1-2)Man(a1-6)]Man(b1-4)GlcNAc(b1-4)[Fuc(a1-6)]GlcNAc
# Method in brief: as §1
# [16] = target: Neu5Ac(a2-6)Gal(b1-4)GlcNAc(b1-2)Man(a1-6)Man(b1-4)GlcNAc(b1-4)GlcNAc
# Method in brief: as §1
# [17] = target: Neu5Ac(a2-6)Gal(b1-4)GlcNAc(b1-2)Man(a1-6)[Gal(b1-4)GlcNAc(b1-2)Man(a1-3)]Man(b1-4)GlcNAc(b1-4)GlcNAc
# Method in brief: as §1
# [18] = target: Neu5Ac(a2-6)Gal(b1-4)GlcNAc(b1-2)Man(a1-6)[GlcNAc(b1-2)Man(a1-3)]Man(b1-4)GlcNAc(b1-4)GlcNAc
# Method in brief: as §1
# [19] = target: Neu5Ac(a2-6)Gal(b1-4)GlcNAc(b1-2)Man(a1-6)[Man(a1-3)]Man(b1-4)GlcNAc(b1-4)GlcNAc
# Method in brief: as §1
# [20] = target: Neu5Ac(a2-6)Gal(b1-4)GlcNAc(b1-2)[Neu5Ac(a2-6)Gal(b1-4)GlcNAc(b1-4)]Man(a1-3)[GlcNAc(b1-4)][Neu5Ac(a2-6)Gal(b1-4)GlcNAc(b1-2)[Neu5Ac(a2-6)Gal(b1-4)GlcNAc(b1-6)]Man(a1-6)]Man(b1-4)GlcNAc(b1-4)GlcNAc
# Method in brief: as §1
# [21] = target: Neu5Ac(a2-6)Gal(b1-4)GlcNAc(b1-2)[Neu5Ac(a2-6)Gal(b1-4)GlcNAc(b1-4)]Man(a1-3)[GlcNAc(b1-4)][Neu5Ac(a2-6)Gal(b1-4)GlcNAc(b1-4)Man(a1-6)]Man(b1-4)GlcNAc(b1-4)GlcNAc
# Method in brief: as §1
# [22] = target: Neu5Ac(a2-6)Gal(b1-4)GlcNAc(b1-2)[Neu5Ac(a2-6)Gal(b1-4)GlcNAc(b1-6)]Man(a1-6)[Neu5Ac(a2-6)Gal(b1-4)GlcNAc(b1-2)Man(a1-3)][GlcNAc(b1-4)]Man(b1-4)GlcNAc(b1-4)GlcNAc
# Method in brief: as §1
# [23] = target: Neu5Ac(a2-6)Gal(b1-4)GlcNAc(b1-3)Gal(b1-3)GlcNAc
# Method in brief: as §1
# [24] = target: Neu5Ac(a2-6)Gal(b1-4)GlcNAc(b1-3)Gal(b1-4)GlcNAc
# Method in brief: as §1
# [25] = target: Neu5Ac(a2-6)Gal(b1-4)GlcNAc(b1-3)Gal(b1-4)GlcNAc(b1-2)Man(a1-3)[Neu5Ac(a2-6)Gal(b1-4)GlcNAc(b1-3)Gal(b1-4)GlcNAc(b1-2)Man(a1-6)]GalNAc
# Method in brief: as §1
# [26] = target: Neu5Ac(a2-6)Gal(b1-4)GlcNAc(b1-3)Gal(b1-4)GlcNAc(b1-3)Gal(b1-4)GlcNAc
# Method in brief: as §1
# [27] = target: Neu5Ac(a2-6)Gal(b1-4)GlcNAc(b1-3)Gal(b1-4)GlcNAc(b1-3)Gal(b1-4)GlcNAc(b1-2)Man(a1-3)[Neu5Ac(a2-6)Gal(b1-4)GlcNAc(b1-3)Gal(b1-4)GlcNAc(b1-3)Gal(b1-4)GlcNAc(b1-2)Man(a1-6)]GalNAc
# Method in brief: as §1
# [28] = target: Neu5Ac(a2-6)Gal(b1-4)GlcNAc(b1-3)Gal(b1-4)GlcNAc(b1-3)GalNAc
# Method in brief: as §1
# [29] = target: Neu5Ac(a2-6)Gal(b1-4)GlcNAc(b1-3)Gal(b1-4)GlcNAc(b1-3)[Neu5Ac(a2-6)Gal(b1-4)GlcNAc(b1-3)Gal(b1-4)GlcNAc(b1-6)]GalNAc
# Method in brief: as §1
# [30] = target: Neu5Ac(a2-6)Gal(b1-4)GlcNAc(b1-3)Gal(b1-4)GlcNAc(b1-6)[Gal(b1-3)]GalNAc
# Method in brief: as §1
# [31] = target: Neu5Ac(a2-6)Gal(b1-4)GlcNAc(b1-3)Gal(b1-4)[Fuc(a1-3)]GlcNAc(b1-3)Gal(b1-4)[Fuc(a1-3)]GlcNAc
# Method in brief: as §1
# [32] = target: Neu5Ac(a2-6)Gal(b1-4)GlcNAc(b1-3)GalNAc
# Method in brief: as §1
# [33] = target: Neu5Ac(a2-6)Gal(b1-4)GlcNAc(b1-3)[Neu5Ac(a2-6)Gal(b1-4)GlcNAc(b1-6)]GalNAc
# Method in brief: as §1
# [34] = target: Neu5Ac(a2-6)Gal(b1-4)GlcNAc(b1-6)GalNAc
# Method in brief: as §1
# [35] = target: Neu5Ac(a2-6)Gal(b1-4)GlcNAc(b1-6)[Gal(b1-3)GlcNAc(b1-3)]Gal(b1-4)Glc
# Method in brief: as §1
# [36] = target: Neu5Ac(a2-6)Gal(b1-4)GlcNAc(b1-6)[Gal(b1-3)]GalNAc
# Method in brief: as §1
# [37] = target: Neu5Ac(a2-6)Gal(b1-4)GlcNAc6S
# Method in brief: as §1
# Neu5Ac(a2-6)GalNAc = target: Neu5Ac(a2-6)GalNAc
# Method in brief: as §1
# [38] = target: Neu5Ac(a2-6)GalNAc(b1-4)GlcNAc
# Method in brief: as §1
# [39] = target: Neu5Ac(a2-6)GalNAc(b1-4)GlcNAc6S
# Method in brief: as §1
# [40] = target: Neu5Ac(a2-6)GlcNAc(b1-4)GlcNAc
# Method in brief: as §1
# [41] = target: Neu5Ac(a2-6)GlcNAc(b1-4)GlcNAc(b1-4)GlcNAc
# Method in brief: as §1
binder,measurement,setting,value
Pwp2 (Candida glabrata) (protein) MGSSHHHHHHSSGLVPRGSHMASKNPVELNNVCTFPNDYGRIPGFTVLVGRLGLLISASDYKELLRYPGAFLIATQDTMTTSPNFELTGFPFFTGLYGLTVFPLDLLVELRGYFVPPNSGQYTFTLSDSDDAAIIFLGNPSAFPCGDLQNWPKPSEEDITVTDHLFPSRTLYLIEGVAYPMRIAYYNGIGAGRLNAAFIDPSGTRHTNWEGYIWQYDPCSTCTYS,glycan array binding signal (z-score),Neu5Ac(a2-3)GalNAc,-0.36
same,glycan array binding signal (z-score),[1],-0.407
same,glycan array binding signal (z-score),[2],0.443
same,glycan array binding signal (z-score),[3],-0.488
same,glycan array binding signal (z-score),[4],0.085
same,glycan array binding signal (z-score),[5],0.718
same,glycan array binding signal (z-score),Neu5Ac(a2-6)Gal,-0.621
same,glycan array binding signal (z-score),[6],-0.417
same,glycan array binding signal (z-score),Neu5Ac(a2-6)Gal(b1-4)Glc,-0.356
same,glycan array binding signal (z-score),[7],1.5
same,glycan array binding signal (z-score),[8],-0.406
same,glycan array binding signal (z-score),[9],-0.124
same,glycan array binding signal (z-score),[10],0.06
same,glycan array binding signal (z-score),[11],-0.509
same,glycan array binding signal (z-score),[12],0.092
same,glycan array binding signal (z-score),[13],-0.431
same,glycan array binding signal (z-score),[14],0.268
same,glycan array binding signal (z-score),[15],1.79
same,glycan array binding signal (z-score),[16],-0.349
same,glycan array binding signal (z-score),[17],-0.427
same,glycan array binding signal (z-score),[18],-0.111
same,glycan array binding signal (z-score),[19],0.28
same,glycan array binding signal (z-score),[20],-0.119
same,glycan array binding signal (z-score),[21],0.141
same,glycan array binding signal (z-score),[22],-0.146
same,glycan array binding signal (z-score),[23],-0.459
same,glycan array binding signal (z-score),[24],-0.393
same,glycan array binding signal (z-score),[25],-0.376
same,glycan array binding signal (z-score),[26],-0.474
same,glycan array binding signal (z-score),[27],0.778
same,glycan array binding signal (z-score),[28],0.234
same,glycan array binding signal (z-score),[29],-0.059
same,glycan array binding signal (z-score),[30],-0.388
same,glycan array binding signal (z-score),[31],-0.077
same,glycan array binding signal (z-score),[32],-0.574
same,glycan array binding signal (z-score),[33],-0.245
same,glycan array binding signal (z-score),[34],-1.25
same,glycan array binding signal (z-score),[35],1.86
same,glycan array binding signal (z-score),[36],3.56
same,glycan array binding signal (z-score),[37],-0.426
same,glycan array binding signal (z-score),Neu5Ac(a2-6)GalNAc,-0.452
same,glycan array binding signal (z-score),[38],-0.834
same,glycan array binding signal (z-score),[39],4.86
same,glycan array binding signal (z-score),[40],0.409
same,glycan array binding signal (z-score),[41],-0.21
